{
  "source": "paper PMC4336329",
  "about": "(PLoS ONE, 2015)",
  "note": "Hit rate of the full screen: of about 310,000 compounds, about 14,000 (4.5%) showed an effect of 50% or more. Effects have a minus sign here. The list shows a part of the results.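 Note: peak tail current of the secondary pulse compared with the same well before compound.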",
  "data": [
    {"target": "human ether-à-go-go-related gene (hERG) potassium channel (human, UniProt Q12809)", "sequence (Q12809 whole entry, looked up)": "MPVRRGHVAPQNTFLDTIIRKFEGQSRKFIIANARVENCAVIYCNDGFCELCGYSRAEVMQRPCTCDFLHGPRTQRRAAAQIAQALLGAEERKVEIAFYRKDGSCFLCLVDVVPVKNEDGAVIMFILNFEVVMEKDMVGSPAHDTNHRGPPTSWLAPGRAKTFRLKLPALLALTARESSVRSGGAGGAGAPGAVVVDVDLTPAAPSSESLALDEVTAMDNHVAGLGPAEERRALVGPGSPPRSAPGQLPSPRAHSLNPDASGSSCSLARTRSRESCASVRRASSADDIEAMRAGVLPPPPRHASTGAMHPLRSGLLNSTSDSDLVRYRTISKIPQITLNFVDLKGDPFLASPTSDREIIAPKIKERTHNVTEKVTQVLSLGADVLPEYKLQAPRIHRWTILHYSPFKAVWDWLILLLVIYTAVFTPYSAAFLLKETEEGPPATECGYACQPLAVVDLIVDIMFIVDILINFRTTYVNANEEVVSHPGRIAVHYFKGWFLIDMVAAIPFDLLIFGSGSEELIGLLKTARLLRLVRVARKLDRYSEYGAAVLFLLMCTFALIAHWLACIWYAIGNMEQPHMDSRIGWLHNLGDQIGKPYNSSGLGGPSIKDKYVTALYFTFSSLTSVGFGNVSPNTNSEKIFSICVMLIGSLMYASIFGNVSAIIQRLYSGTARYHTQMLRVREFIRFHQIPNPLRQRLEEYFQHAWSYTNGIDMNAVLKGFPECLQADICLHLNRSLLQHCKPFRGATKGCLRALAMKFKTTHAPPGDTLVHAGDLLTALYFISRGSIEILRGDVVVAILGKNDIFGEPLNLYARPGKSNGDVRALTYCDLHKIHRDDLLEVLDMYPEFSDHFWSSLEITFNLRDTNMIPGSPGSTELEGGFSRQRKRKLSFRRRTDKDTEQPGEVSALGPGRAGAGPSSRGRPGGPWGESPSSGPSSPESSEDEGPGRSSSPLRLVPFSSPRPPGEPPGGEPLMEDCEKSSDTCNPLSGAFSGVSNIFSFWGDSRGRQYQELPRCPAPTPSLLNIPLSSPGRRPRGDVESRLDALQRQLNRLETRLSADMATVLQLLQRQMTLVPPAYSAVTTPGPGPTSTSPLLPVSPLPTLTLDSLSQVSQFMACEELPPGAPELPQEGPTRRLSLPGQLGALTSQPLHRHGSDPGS", "assay": "primary screen, population patch clamp on CHO cells stably expressing hERG", "units": {"hERG current change (%, negative = inhibition) at 10uM": "%"}, "values": [
      {"compound": "Cc1[nH]c2c(Br)cccc2c1[C@H]1[C@@H](CC#N)C1(C)C", "hERG current change (%, negative = inhibition) at 10uM": 6.14},
      {"compound": "O=C(O)CC(Sc1n[nH]c(=S)s1)C(=O)O", "note": "(stereo not drawn)", "hERG current change (%, negative = inhibition) at 10uM": 18.2},
      {"compound": "Cc1cccn2c(CNCCCOc3cccnc3)c(C(=O)N3CCOCC3)nc12", "hERG current change (%, negative = inhibition) at 10uM": 3.98},
      {"compound": "CCOC(=O)[C@@H]1[C@H]2COc3cc(OC)ccc3[C@H]2N2C(=O)N(c3ccc(C(F)(F)F)cc3)C(=O)[C@@]12C", "hERG current change (%, negative = inhibition) at 10uM": 4.74},
      {"compound": "CC(=O)c1ccc(Cc2ncc(C(F)(F)F)cc2Cl)s1", "hERG current change (%, negative = inhibition) at 10uM": 0.338},
      {"compound": "CCCCN(C(=O)C1CC1)C1CCS(=O)(=O)C1", "note": "(stereo not drawn)", "hERG current change (%, negative = inhibition) at 10uM": -17.3},
      {"compound": "CNCc1nc2ccccc2[nH]1.Cl", "hERG current change (%, negative = inhibition) at 10uM": 22.5},
      {"compound": "COc1ccc(CCNC(=O)C2CCN(C(=O)c3ccc(C(C)(C)C)cc3)CC2)cc1OC", "hERG current change (%, negative = inhibition) at 10uM": 5.96},
      {"compound": "O=C(N/N=C/c1cccc([N+](=O)[O-])c1)c1ccc2c(c1)OCCO2", "hERG current change (%, negative = inhibition) at 10uM": 7.63},
      {"compound": "CCn1c(=O)c(C(=O)NCc2ccc3c(c2)OCO3)c(O)c2ccccc21", "hERG current change (%, negative = inhibition) at 10uM": 10.8},
      {"compound": "NN(Cc1ccccc1)C(=S)Nc1ccc(Cl)c(Cl)c1", "hERG current change (%, negative = inhibition) at 10uM": 8.32},
      {"compound": "CC(C)N(C(=O)CN1C(=O)NC(c2ccccc2)(c2ccccc2)C1=O)C(C)C", "hERG current change (%, negative = inhibition) at 10uM": 6.58},
      {"compound": "Cc1nn(Cc2ccccc2)c(Cl)c1/C=C1\\NC(=S)NC1=O", "hERG current change (%, negative = inhibition) at 10uM": -0.0551},
      {"compound": "Nc1ccc(Cl)c(S(=O)(=O)Nc2cccc(Cl)c2)c1", "hERG current change (%, negative = inhibition) at 10uM": 6.88},
      {"compound": "CN(CC(O)Cn1c2ccccc2c2ccccc21)S(C)(=O)=O", "note": "(stereo not drawn)", "hERG current change (%, negative = inhibition) at 10uM": 5.57},
      {"compound": "COc1ccc(NS(=O)(=O)NC(=O)c2c[nH]c3ccccc23)cc1", "hERG current change (%, negative = inhibition) at 10uM": 9.1},
      {"compound": "O=S(=O)(c1ccccc1)N1N=C(c2ccccc2)CC1c1ccco1", "note": "(stereo not drawn)", "hERG current change (%, negative = inhibition) at 10uM": 11},
      {"compound": "CC(=O)N1CCN(c2ccc([N+](=O)[O-])cc2)CC1", "hERG current change (%, negative = inhibition) at 10uM": -55.9},
      {"compound": "CC1CCCCN1C(=O)c1ccc(COc2ccc([N+](=O)[O-])cc2)o1", "note": "(stereo not drawn)", "hERG current change (%, negative = inhibition) at 10uM": -69.9},
      {"compound": "Cc1cc(C)nc(SCCCNCc2c(F)cccc2Cl)n1.Cl", "hERG current change (%, negative = inhibition) at 10uM": -8.96},
      {"compound": "O=C(c1cc2cc(F)ccc2[nH]1)N1CCc2ccccc21", "hERG current change (%, negative = inhibition) at 10uM": 7.64},
      {"compound": "CC(=O)OCC1O[C@@H](O[C@@H]2C[C@H]3C(C)(C)[C@H](OC(C)=O)CC[C@]3(C)[C@H]3CC[C@]45C[C@]4(CC[C@H]5[C@@H](C)C[C@@H](O)[C@H](O)C(C)(C)O)[C@@]32C)[C@H](O)[C@@H](O)[C@@H]1O", "note": "(stereo partly drawn)", "hERG current change (%, negative = inhibition) at 10uM": 5.55},
      {"compound": "O=C(Nc1ccc(N2CCCC2=O)cc1)c1cncc(Br)c1", "hERG current change (%, negative = inhibition) at 10uM": 22.5},
      {"compound": "COc1cc2c(cc1OC)C(c1cc3ccccc3oc1=O)=NC(C)(C)C2", "hERG current change (%, negative = inhibition) at 10uM": 9.04},
      {"compound": "COc1cccc(OC)c1C(=O)NC(=S)N1C[C@H]2C[C@H](C1)c1cccc(=O)n1C2", "hERG current change (%, negative = inhibition) at 10uM": 2.4},
      {"compound": "Cc1ccc(CN2CCN(/N=C/c3ccc(C(F)(F)F)cc3)CC2)c(C)c1", "hERG current change (%, negative = inhibition) at 10uM": -4.93},
      {"compound": "COc1ccc(-c2nc(CS(=O)(=O)CC(=O)NC3CCCCCC3)c(C)o2)cc1", "hERG current change (%, negative = inhibition) at 10uM": 11.7},
      {"compound": "CN1CCCN(C(=O)c2cccc(Cl)c2)CC1", "hERG current change (%, negative = inhibition) at 10uM": 0.367},
      {"compound": "O=S(=O)(Nc1ccc(Cl)cn1)c1cccs1", "hERG current change (%, negative = inhibition) at 10uM": 13.2},
      {"compound": "Cc1ccccc1NC(=S)N(C)CCc1ccccn1", "hERG current change (%, negative = inhibition) at 10uM": 8.57},
      {"compound": "O=C(NCc1ccco1)c1cc(-c2cccnc2)nc2ccc(Cl)cc12", "hERG current change (%, negative = inhibition) at 10uM": -36.3},
      {"compound": "O=C(Nc1cccc2ccccc12)c1cc2c(cc1Br)OCO2", "hERG current change (%, negative = inhibition) at 10uM": -23.4},
      {"compound": "CCN1CCN(c2cc3c(nn2)Oc2ccccc2N3C)CC1", "hERG current change (%, negative = inhibition) at 10uM": -41.1},
      {"compound": "CCC(=O)Nc1cccc(NC(=S)NC(=O)c2cccc(C)c2)c1", "hERG current change (%, negative = inhibition) at 10uM": -8.02},
      {"compound": "COc1ccc(C(=O)OCC(=O)NC2CC2)cc1[N+](=O)[O-]", "hERG current change (%, negative = inhibition) at 10uM": 15.8},
      {"compound": "O=C(COC(=O)c1ccccc1OC(F)F)Nc1ccc(N2CCCCC2)cc1", "hERG current change (%, negative = inhibition) at 10uM": 9.25},
      {"compound": "COc1cccc(NC(=O)CN(C)C(=O)c2sc3cc(Cl)ccc3c2Cl)c1", "hERG current change (%, negative = inhibition) at 10uM": -18.5},
      {"compound": "CC1(C)CC[C@]2(C)CC[C@]3(C)C4C[C@@H]5OO[C@@]6(O5)C(CCCC6(C)C)[C@]4(C)CC[C@@]3(C)C2C1", "note": "(stereo partly drawn)", "hERG current change (%, negative = inhibition) at 10uM": 8.78},
      {"compound": "Cc1cc(NC(=O)c2cc(S(=O)(=O)N3CCCCC3)ccc2C)n(-c2ccccn2)n1", "hERG current change (%, negative = inhibition) at 10uM": -4.7},
      {"compound": "CCN(CC)c1ccc(-c2nc3cnccc3n2C)cc1", "hERG current change (%, negative = inhibition) at 10uM": -25.9},
      {"compound": "CCNC(=S)NNC(=O)c1ccccc1Cl", "hERG current change (%, negative = inhibition) at 10uM": 4.98},
      {"compound": "COc1ccccc1N1CCN(C(=O)COc2cc(C)ccc2C)CC1", "hERG current change (%, negative = inhibition) at 10uM": -18.3},
      {"compound": "CCOC(=O)c1nc(Nc2ccc(C(=O)OC)cc2)c2ccccc2n1", "hERG current change (%, negative = inhibition) at 10uM": 0.323},
      {"compound": "CCn1c(/C=C2/C(=O)N(C)c3ccccc32)nc2ccccc2c1=O", "hERG current change (%, negative = inhibition) at 10uM": 6.83},
      {"compound": "CCOC(=O)c1sc2ccccc2c1OC(=O)c1ccc(C)cc1", "hERG current change (%, negative = inhibition) at 10uM": -12.3},
      {"compound": "C[C@H](NC(=O)c1nc[nH]c1C(=O)N[C@@H](CCCC[NH3+])C(=O)OC(C)(C)C)C(=O)OC(C)(C)C.[Cl-]", "hERG current change (%, negative = inhibition) at 10uM": 9.19},
      {"compound": "COc1ccc(CCNS(=O)(=O)c2cn(C)nc2C)cc1OC", "hERG current change (%, negative = inhibition) at 10uM": 19.9},
      {"compound": "O=C(CSc1nc(-c2ccc(F)cc2)cs1)N1CCc2ccccc21", "hERG current change (%, negative = inhibition) at 10uM": -1.23},
      {"compound": "COC(=O)C1(C(F)(F)F)N=C(N(C)C)OC(N(C)C)=N1", "hERG current change (%, negative = inhibition) at 10uM": 2.85},
      {"compound": "O=C(COC(=O)c1c[nH]c(=O)[nH]c1=O)NCc1ccccc1", "hERG current change (%, negative = inhibition) at 10uM": -12.2},
      {"compound": "CCn1c(SC(C)C(=O)NCC2CCCO2)nc2scc(-c3ccccc3)c2c1=O", "note": "(stereo not drawn)", "hERG current change (%, negative = inhibition) at 10uM": -28.7},
      {"compound": "CCC(C)NC(=O)[C@@H]1CCCN1C(=O)C1CCN(S(=O)(=O)c2ccc(C)cc2)CC1", "note": "(stereo partly drawn)", "hERG current change (%, negative = inhibition) at 10uM": 18.1},
      {"compound": "COc1ccc(S(=O)(=O)N(C)c2ccc(OC(=O)C(C)Oc3ccc(F)cc3)cc2)cc1", "note": "(stereo not drawn)", "hERG current change (%, negative = inhibition) at 10uM": -14.5},
      {"compound": "CC1C2CC(CC1(C)C)N(C(=O)Nc1ccc3nccnc3c1)C2", "note": "(stereo not drawn)", "hERG current change (%, negative = inhibition) at 10uM": 3.06}
    ]}
  ]
}
